Measured values taken from PubChem BioAssay AID504332 (National Center for Advancing Translational Sciences (NCATS), 2011).
Hit rate of the full screen: of about 350,000 compounds, about 31,000 (8.9%) were called active. This list was built around the results that the source calls inconclusive (neither active nor inactive); the mix of calls is not that of the screen. Calls come from the whole dose curve; as a rule, active = well fitted inhibition curve with a large enough effect; inconclusive = small, poorly fitted or top-dose-only effect; inactive = no such curve, though single readings can be large or run the other way. Potencies beside an inconclusive call are fits to weak or partial responses and may not hold up.

biological target: Histone-lysine N-methyltransferase EHMT2 (Homo sapiens) (UniProt Q96KQ7); assay: qHTS Assay for Inhibitors of Histone Lysine Methyltransferase G9a; settings: G9a H3K9 monomethylation, AlphaScreen, 2 h; activity, negative = inhibition: at 59 µM (top of the series) unless noted; note: nearly all actives have a fitted effect of over 75% in size
Sequence of UniProt Q96KQ7 (Q96KQ7 whole entry, looked up): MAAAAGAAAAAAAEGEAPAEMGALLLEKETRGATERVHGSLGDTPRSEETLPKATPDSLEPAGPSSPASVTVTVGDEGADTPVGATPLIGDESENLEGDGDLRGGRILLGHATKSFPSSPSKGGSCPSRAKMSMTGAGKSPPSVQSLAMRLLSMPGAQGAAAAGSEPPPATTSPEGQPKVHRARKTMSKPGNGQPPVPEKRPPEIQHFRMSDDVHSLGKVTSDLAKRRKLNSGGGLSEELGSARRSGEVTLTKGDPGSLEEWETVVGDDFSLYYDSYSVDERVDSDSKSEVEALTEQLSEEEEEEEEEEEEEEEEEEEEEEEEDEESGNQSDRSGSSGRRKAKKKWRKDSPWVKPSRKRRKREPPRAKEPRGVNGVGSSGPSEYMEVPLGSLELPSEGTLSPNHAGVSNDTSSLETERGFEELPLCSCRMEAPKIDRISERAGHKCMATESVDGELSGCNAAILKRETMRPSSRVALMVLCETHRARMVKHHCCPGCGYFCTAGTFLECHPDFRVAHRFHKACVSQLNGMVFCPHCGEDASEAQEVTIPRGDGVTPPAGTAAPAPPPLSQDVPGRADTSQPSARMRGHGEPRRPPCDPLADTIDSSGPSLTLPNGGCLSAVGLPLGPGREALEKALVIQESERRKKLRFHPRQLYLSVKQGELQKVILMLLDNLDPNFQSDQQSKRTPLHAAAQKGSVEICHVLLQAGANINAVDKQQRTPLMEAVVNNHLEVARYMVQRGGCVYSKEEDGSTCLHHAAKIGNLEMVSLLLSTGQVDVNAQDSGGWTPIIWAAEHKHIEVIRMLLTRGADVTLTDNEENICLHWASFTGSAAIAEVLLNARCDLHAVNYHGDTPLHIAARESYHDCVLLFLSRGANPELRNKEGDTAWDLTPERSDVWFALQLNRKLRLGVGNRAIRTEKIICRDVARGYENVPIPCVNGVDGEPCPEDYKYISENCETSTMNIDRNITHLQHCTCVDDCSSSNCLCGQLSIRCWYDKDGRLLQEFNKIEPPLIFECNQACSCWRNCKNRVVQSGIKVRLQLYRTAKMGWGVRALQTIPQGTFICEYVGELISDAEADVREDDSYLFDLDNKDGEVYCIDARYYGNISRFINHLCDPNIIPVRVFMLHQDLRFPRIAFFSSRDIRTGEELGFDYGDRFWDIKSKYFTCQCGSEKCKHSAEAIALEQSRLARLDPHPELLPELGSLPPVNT
Procedure, shortened: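 Using a bead-based AlphaScreen, monomethylated H3K9 product from 2 h room-temperature reactions (G9a 20 nM, peptide 500 nM, SAM 20 uM) was detected with 0.5 ug/mL rabbit anti-H3K9me1 antibody.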
% is set by controls: 0 for no effect and ±100 for the full control effect; potency is the fitted concentration of half-maximal effect; tags give direction and shape of the fitted curve.

SMILES	Potency	activity, negative = inhibition
Cc1ccc(-n2c(N)c(-c3nc4ccccc4n3C)sc2=S)cc1	active: 3.55 µM	
O=C(OCC#CCNc1nnc(-c2cccc3ccccc23)o1)c1cccs1		inactive: 1.46% [at 12.7 µM]
COc1ccccc1NC(=O)NC1(C)CCS(=O)(=O)C1 (stereo unspecified)	inactive	
Cc1c(S(=O)(=O)c2ccccn2)c(N)n(Cc2ccccc2)c1C	active: 14.1 µM	
CC(C)(C)C(=O)Nc1cc(S(=O)(=O)N2CCCCC2)ccc1N1CCCCC1	active: 39.8 µM	
CC(NC(=O)c1ccc2c(c1)sc1nc(-c3ccccc3)cn12)C12CC3CC(CC(C3)C1)C2 (stereo unspecified)	inactive	
CCc1ccc(S(=O)(=O)NC2CCCCNC2=O)cc1 (stereo unspecified)	inactive	
N#Cc1ccccc1NC(=S)NC(=O)C1CCC1	active: 70.8 µM	
O=C(Nc1ccc2nc(-c3ccccc3)[nH]c2c1)c1ccco1	inconclusive: 39.8 µM [inhibitor, single point]	
Cc1nn2c(N3CCN(c4ccccn4)CC3)cc(C(C)C)nc2c1-c1ccccc1	inconclusive: 1.12 µM [inhibitor, full curve, poor fit]	
Cc1ccccc1NC(=S)C1=C(O)c2sccc2N(C)S1(=O)=O	active: 22.4 µM	
COc1cccc(C(=O)/C=C/Nc2ccc(S(=O)(=O)Nc3cccc(C(C)=O)c3)cc2)c1	inconclusive: 5.01 µM [inhibitor, partial curve, poor fit]	
Cc1ccc2c(c1)N(CC(=O)N(Cc1ccccn1)Cc1ccco1)C(=O)C(C(C)C)O2 (stereo unspecified)	inconclusive: 35.5 µM [inhibitor, single point]	
O=C(NCc1ccco1)c1sc2cccc(F)c2c1Cl	active: 8.91 µM	
O=C(Nc1ccc2c(c1)OCCO2)c1c(F)c(F)c(F)c(F)c1F	inconclusive: 89.1 µM [inhibitor, partial curve, poor fit]	
Nc1cccc(NC(=O)CN2CCOCC2)c1	inconclusive: 89.1 µM [inhibitor, single point]	
CCN(CC)C(=O)COc1cccc2ccccc12	inconclusive: 89.1 µM [inhibitor, single point]	
CC1CN(C(=O)c2cc([N+](=O)[O-])cc([N+](=O)[O-])c2)CC(C)O1 (stereo unspecified)	inconclusive: 56.2 µM [inhibitor, partial curve, poor fit]	
COc1ccc(Nc2c3c(nc4nncn24)CCC3)cc1OC	inconclusive: 25.1 µM [inhibitor, single point]	
O=C(COC(=O)c1ccccc1SCC(=O)NC1CCS(=O)(=O)C1)NC1CCS(=O)(=O)C1 (stereo unspecified)	inactive	
O=[N+]([O-])c1nn(-c2cccc(Cl)c2)n(O)c1=NCc1cccnc1	active: 7.94 µM	
Cc1ccc(NC(=O)c2cc(N3C(=O)CCC3=O)ccc2N2CCCCC2)cc1	inactive	
CN(Cc1ccccc1)c1oc(COc2ccccc2F)nc1C#N	active: 28.2 µM	
CCCCCCn1c(SCC(=O)c2ccccc2)nc2c1c(=O)[nH]c(=O)n2C	inconclusive: 17.8 µM [inhibitor, single point]	

SMILES	Potency	activity, negative = inhibition
CCOC(=O)c1ccc(N2C(=O)c3n[nH]c(-c4ccco4)c3C2c2cccc(O)c2)cc1 (stereo unspecified)	inconclusive: 28.2 µM [inhibitor, partial curve, poor fit]	
Cc1nc(C(=O)NNC(=O)c2cccc(Cl)c2)c(C(F)(F)F)o1	inconclusive: 2.24 µM [inhibitor, partial curve, poor fit]	
Cc1onc(-c2ccccc2)c1C(=O)N1CCN(S(=O)(=O)c2ccc3c(c2)OCCO3)CC1	inactive	
COC(=O)c1c(-c2ccc3ccccc3c2)csc1NC(=O)Cc1ccc(OC)c(OC)c1		inconclusive: -58.6% [inhibitor]
CC(C)CC1(C(=O)NCCc2c[nH]c3ccccc23)C=CCN1C(=O)c1ccccc1 (stereo unspecified)	inconclusive: 89.1 µM [inhibitor, single point]	
O=C(Cn1nc2ccccc2n1)N/N=C/c1cc([N+](=O)[O-])ccc1O	inconclusive: 89.1 µM [inhibitor, partial curve, poor fit]	
CCn1c(=O)c(C(=O)CN(C)Cc2cccc(OC)c2OC)c(N)n(Cc2ccccc2)c1=O	active: 25.1 µM	
O=C(CN(C(=O)CNS(=O)(=O)c1ccc(F)cc1)c1cccc(F)c1)NCC1CCCO1 (stereo unspecified)	inactive	
CSc1nnc2c(n1)OC(c1ccc(C(=O)O)cc1)N(C(C)=O)c1ccccc1-2 (stereo unspecified)	inconclusive: 89.1 µM [inhibitor, single point]	
N#Cc1ncc(-c2ccc3c(c2)OCCOCCOCCOCCO3)nc1C#N	inconclusive: 4.47 µM [inhibitor, single point]	
COc1ccc2cc(C3CC(c4ccco4)=NN3S(=O)(=O)c3ccccc3)c(Cl)nc2c1 (stereo unspecified)	inconclusive: 28.2 µM [inhibitor, single point]	
Cc1ccc(/C=N/NC(=O)CNC(=O)c2ccc(S(=O)(=O)N3CCCC3)cc2)o1	active: 44.7 µM	
CCCCCN1C=CC(=C2C(=O)c3ccccc3C2=O)C=C1	inconclusive: 17.8 µM [inhibitor, full curve]	
O=C(CCCN1C(=O)/C(=C/c2ccccc2)SC1=S)N1CCOCC1	active: 79.4 µM	
CN(C)C(=O)c1nc2ccc(Cl)cn2c1CNCc1cccc(OC(F)(F)F)c1	inconclusive: 39.8 µM [inhibitor, single point]	
COc1nc(N/N=C/c2ccc(-c3cccc([N+](=O)[O-])c3)o2)nc(N2CCOCC2)n1	inconclusive: 5.01 µM [inhibitor, partial curve, poor fit]	
CSc1ccccc1C(=O)NC1CCCCC1	inactive	
CC(CCC(=O)O)C1CCC2C3C(=O)CC4CC(=O)CC[C@@]4(C)C3CC(=O)[C@]12C (stereo partly specified)		inactive: -6.03% [at 2.33 µM]
Cc1cc(NC(=O)COC(=O)CCNS(=O)(=O)c2c(Cl)cccc2Cl)no1	inconclusive: 70.8 µM [inhibitor, partial curve, poor fit]	
CC1CCN(C(=O)C2COc3ccccc3C2)CC1 (stereo unspecified)	inactive	
Cc1ccc(OCCC(=O)OCC(=O)NC(=O)NC2CCCCC2)cc1	inactive	
CC(C)CNc1nc(N)c([N+](=O)[O-])c(N2CCCCCC2)n1	inconclusive: 79.4 µM [inhibitor, single point]	
CSCCC(NC(=O)c1ccccc1Cl)C(=O)N1CCCCCCC1 (stereo unspecified)		inactive: 16.1% [at 12.7 µM]
Cc1ccc(Nc2sc(C(=O)c3ccccc3)c(N)c2C(N)=O)cc1	inconclusive: 31.6 µM [inhibitor, single point]	

SMILES	Potency	activity, negative = inhibition
O=c1oc2ccccc2cc1-c1nc2ccccc2o1	inactive	
CCn1c(-c2cccc(Br)c2)n[nH]c1=S	inconclusive: 1.41 µM [inhibitor, partial curve, poor fit]	
CCc1ccc(/C=C2/C(=O)N(C)C(=S)N2CC(=O)OC)s1	active: 35.5 µM	
O=C(Nc1cccc(Cl)c1)N1CC2CCCN2c2ccccc21 (stereo unspecified)	active: 2.24 µM	
Cc1ccc(Nc2nc(N)c([N+](=O)[O-])c(NCc3ccco3)n2)cc1	inactive	
O=C(CCS(=O)(=O)c1ccc2c(c1)NC(=O)CO2)NCCc1ccc(Cl)cc1	inactive	
CC(C)=CCCC(C)CN1CCC(O)CC1 (stereo unspecified)	active: 12.6 µM	
CC(C)CNC(=O)C1CCN(Cc2ccc(OCc3ccccc3)cc2)CC1	inconclusive: 31.6 µM [inhibitor, single point]	
Cc1ccc(N2CC(NS(=O)(=O)c3cccnc3)CC2=O)cc1C (stereo unspecified)	inconclusive: 70.8 µM [inhibitor, partial curve, poor fit]	
CN=c1c([N+](=O)[O-])nn(-c2ccc3c(c2)OCCO3)n1O	inconclusive: 56.2 µM [inhibitor, partial curve, poor fit]	
Cc1ccc(C)c(OCCC(=O)OCC(=O)Nc2cccc(S(=O)(=O)N3CCCC3)c2)c1		inactive: -4.7% [at 2.33 µM]
CCOC(=O)C1C(C(=O)OC)=C(CC(C)C)c2ccccc2N1S(=O)(=O)C(F)(F)F (stereo unspecified)	inactive	
COc1cc(/C=C/C(=O)O)cc(S(=O)(=O)Nc2ccc(F)cc2)c1OC	inactive	
N#CCCCN1C(=O)C(=C(C#N)C#N)c2ccccc21	inconclusive: 89.1 µM [inhibitor, single point]	
COc1ccccc1C1C(C(=O)c2cc3ccccc3o2)=C(O)C(=O)N1CCN(C)C (stereo unspecified)	inconclusive: 10 µM [inhibitor, partial curve, poor fit]	
O=C(Oc1ccc(C(=S)N2CCC(O)CC2)cc1)c1ccc(Cl)cc1	inconclusive: 79.4 µM [inhibitor, single point]	
COc1ccc(OC)c(C(=O)N2CCC(n3nccc3NC(=O)CC(C)C)CC2)c1		inactive: 2.99% [at 0.501 µM]
CN(C)CCC(=O)c1ccc(F)cc1	inconclusive: 15.8 µM [inhibitor, full curve, poor fit]	
CC1CCc2c(sc(NC(=S)NC(=O)c3ccccc3)c2C#N)C1 (stereo unspecified)		inconclusive: -56.4% [inhibitor]
O=C(Nc1ccc(C(=O)NCCCN2CCCCC2)cc1)C1=CSCCO1	inconclusive: 0.891 µM [inhibitor, full curve, poor fit]	
Cc1ccc(NS(=O)(=O)c2ccc3c(c2)N(C)C(=O)CC(=O)N3C)cc1Cl	inactive	
CCCCc1nnc(NC(=O)C2CC(=O)N(c3ccc(C)cc3)C2)s1 (stereo unspecified)	inconclusive: 22.4 µM [inhibitor, full curve]	
CC(OC(=O)c1cc2sccc2n1C)C(=O)NCc1ccc(F)cc1 (stereo unspecified)	inconclusive: 25.1 µM [inhibitor, partial curve, poor fit]	
